The source of these data is PubChem BioAssay AID488969 (Vanderbilt High Throughput Screening Facility, 2010).

In all, about 110,000 compounds were measured (“z-score”: median about -0.1, highest 2% from about 2 on). The list shows a part of the results. Active and inactive are the calls of the source.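 Rule for the calls: active = z-score in the third read window above 3 or below -3; inactive = the rest.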

The target of the assay is Metabotropic glutamate receptor 8 (Rattus norvegicus) (UniProt P70579). The experiment in a line: mGluR8 Gi/Go-coupled signaling modulation – cell-based, rat, thallium flux, HTS, primary screen (AID 488969). The settings on record: HEK293 rat mGluR8, GIRK (G protein-gated inwardly rectifying potassium channel) thallium flux, FluoZin2; at 10 µM; stronger effect = higher value; submaximal glutamate (EC20) added with thallium.
Chain of UniProt P70579 (P70579 whole entry, looked up): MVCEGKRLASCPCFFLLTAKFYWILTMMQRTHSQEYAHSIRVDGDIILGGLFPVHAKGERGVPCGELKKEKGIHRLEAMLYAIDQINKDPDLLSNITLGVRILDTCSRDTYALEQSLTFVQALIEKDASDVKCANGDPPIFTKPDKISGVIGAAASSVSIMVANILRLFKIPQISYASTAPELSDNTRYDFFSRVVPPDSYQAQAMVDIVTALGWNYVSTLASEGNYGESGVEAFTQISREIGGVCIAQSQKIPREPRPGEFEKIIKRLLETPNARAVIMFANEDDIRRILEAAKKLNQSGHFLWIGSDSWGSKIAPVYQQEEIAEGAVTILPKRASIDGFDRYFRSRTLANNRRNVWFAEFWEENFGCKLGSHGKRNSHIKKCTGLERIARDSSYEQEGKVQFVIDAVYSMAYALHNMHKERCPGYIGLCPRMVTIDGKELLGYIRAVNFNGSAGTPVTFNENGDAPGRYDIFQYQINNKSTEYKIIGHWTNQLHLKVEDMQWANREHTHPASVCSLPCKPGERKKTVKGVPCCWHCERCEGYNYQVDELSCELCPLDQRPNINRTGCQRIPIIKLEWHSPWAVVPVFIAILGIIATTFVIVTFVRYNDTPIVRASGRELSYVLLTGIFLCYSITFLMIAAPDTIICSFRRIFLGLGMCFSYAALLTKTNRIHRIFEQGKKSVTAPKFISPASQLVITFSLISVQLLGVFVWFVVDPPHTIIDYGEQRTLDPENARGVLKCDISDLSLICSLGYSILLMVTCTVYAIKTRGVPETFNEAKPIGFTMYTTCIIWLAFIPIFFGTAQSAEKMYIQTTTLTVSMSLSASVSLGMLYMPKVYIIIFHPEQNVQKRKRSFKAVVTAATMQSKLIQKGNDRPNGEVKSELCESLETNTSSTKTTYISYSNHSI
As to `Cc1cc(C)n(-c2nc3sc4c(c3c3nnc(SCC(N)=O)n23)CC(C)(C)OC4)n1`, the z-score was -0.198.
The figure for `C=CCNC(=O)NC(=O)COC(=O)/C(C#N)=C/c1cc(C)n(CC(C)C)c1C` is 0.00508.
The figure for `CC(C)CC(=O)Nc1ccc(C(=O)Cn2nc(C(=O)O)c3ccccc3c2=O)cc1` is -0.623.
The figure for `CCOc1ccc(N(C(C)C(=O)NCc2ccco2)S(C)(=O)=O)cc1` (centres undefined) is -0.0829; for `COCC(O)CSc1c([N+](=O)[O-])nc(C)n1Cc1ccc(OC)c([N+](=O)[O-])c1` (centres undefined) it is -0.318; for `CCOc1ccccc1-n1c(SCC(=O)N2CCOCC2)nnc1-c1ccccn1` it is 0.068.
`COc1cccc(NC(=O)Cc2cccs2)c1` gave a z-score of 0.747.
The figure for `CCC(C)NC(=O)COC(=O)c1cc([N+](=O)[O-])ccc1Sc1nc(C)cs1` (centres undefined) is -0.0186.
The figure for `CCOC(=O)c1ccccc1NC(=O)c1cccnc1` is 0.208; for `O=C(COC(=O)c1ccc(Cl)c(S(=O)(=O)N2CCCCCC2)c1)Nc1ccccc1` it is -0.272.
On to `O=C(Nc1ccc(F)cc1)c1nc[nH]c1C(=O)Nc1ccccc1[N+](=O)[O-]`, for which the z-score is -0.105.
The figure for `O=C(O)c1ccc(CN2C(=O)c3ccccc3S2(=O)=O)cc1` is 0.313; for `CCOC(=O)CC1=C(C(=O)OCC)C(c2ccc(OC)cc2OC)C(C#N)=C(N)O1` (centres undefined) it is -0.324; for `O=C(Nc1ccc(Cl)c(Cl)c1)c1csc(-c2ccccc2)n1` it is -0.162.
The figure for `CC(=O)Nc1ccc(NC(=O)CSc2nnc(-c3ccccc3)n2Cc2ccc3c(c2)OCO3)cc1` is -1.83; for `Cn1c(=O)c2c(nc(N3CCCC3)n2CC(O)CO)n(C)c1=O` (centres undefined) it is -0.206; for `COC(=O)c1ccccc1OCC(=O)N1CCN(c2ccc(F)cc2)CC1` it is -0.0501.
The figure for `CC(NC(=O)N(Cc1ccccc1)Cc1ccc2c(c1)OCO2)(C(F)(F)F)C(F)(F)F` is -0.711; for `CCN1CCN(c2cc(C)c3cc(NC(=O)c4ccc(OC)c(OC)c4)ccc3n2)CC1` it is 0.815; for `COCCN(Cc1ccccc1)P(=O)(O)c1ccccc1OCC(=O)O` it is 0.0585.
The molecule `O=C(CSc1nnc(-c2ccco2)n1Cc1ccccc1)NC(=O)NCc1ccccc1` gave a z-score of 0.18.
The figure for `Cc1cc(C)cc(-n2nnnc2SCC(=O)N2CCOCC2)c1` is 0.0627.
The figure for `COc1ccc(/C=N/Nc2nc(N3CCCC3)nc(N3CCCC3)n2)cc1` is -0.325; for `CCOC(=O)Cn1c(=O)sc2ccccc21` it is 1.69.
As for `CSc1nnc(-c2cnccn2)n1Cc1ccccc1`, the z-score is -0.236.
In the case of `Cc1ccc(F)c(NC(=O)CCc2ccccc2)c1`, the z-score was -0.0177.
Molecule `Cc1ccc(S(=O)(=O)Nc2ccc(-c3nc4ccc(C)cc4s3)cc2)cc1` showed a z-score of -0.365.
`CC(C)COc1ccc(-c2cc(C(=O)NN)[nH]n2)cc1` registered a z-score of -0.52.
The figure for `C=CCSc1nnc(NC(=O)c2nc(SCC)ncc2Cl)s1` is 0.107; for `CC1(C)CC(=O)C2=C(C1)N(CC1CCCO1)C(=O)C2(O)C(F)(F)F` (centres undefined) it is -0.396.
Regarding `Cc1ccc(-n2c(C)cc(C(=S)N3CCOCC3)c2C)cc1C`, the z-score is -0.271.
With `CCCCCC/C(=N\NS(C)(=O)=O)c1ccccc1`, the z-score was -0.158.
The figure for `CCOC(=O)N1CCC2(CC1)C(C#N)=C(N)OC1=C2C(=O)CC(C)(C)C1` is -0.0881.
The figure for `O=C(c1ccccc1C(=O)N1CCN(c2ccc(F)cc2)CC1)N1CCN(c2ccc(F)cc2)CC1` is 0.00077; for `CCOc1ccc(-n2c(SCC(=O)NCc3ccco3)nnc2-c2c[nH]c3ccccc23)cc1` it is -0.692.
The figure for `CCOc1ccc(CSC(CC(=O)O)C(=O)O)cc1` (centres undefined) is 1.05; for `CC(C)c1ccc(CN(C(=O)C2COc3ccccc3O2)C2CCS(=O)(=O)C2)cc1` (centres undefined) it is 0.706; for `O=C(O)C1CC(c2ccccc2F)=NO1` (centres undefined) it is -0.289.
Regarding `O=C(CSc1nnc(COc2cccc3cccnc23)o1)c1ccc(F)cc1`, the z-score was 1.63.
The figure for `CSc1cccc(NC(=O)CSc2ccc(C)cc2)c1` is -0.00724; for `C=CCn1c(=S)[nH]c2nc3c(cc2c1=O)CCCC3` it is active: 4.15; for `Cc1cc(C)n2ncc(C(=O)Nc3ccc4c(c3)OCO4)c2n1` it is -0.266.
The figure for `CCOCCCNC(=O)CS(=O)(=O)Cc1nc(-c2cccc(OC)c2)oc1C` is 0.653; for `COc1ccc(N2CCN(C(=O)Nc3ccc(S(=O)(=O)N(C)C)cc3)CC2)cc1` it is 0.0221; for `CCC(C)(C)n1nnnc1C(c1ccncc1)N1CCC(C)CC1` (centres undefined) it is 1.03.
The figure for `CCOC(=O)c1cc(-c2ccc(C)cc2)n(CC(=O)NCc2ccco2)c1C` is -0.118; for `Cc1cc([N+](=O)[O-])c2[nH]c(C(=O)N/N=C/c3ccccc3C(=O)O)c(-c3ccccc3)c2c1` it is -0.455; for `Cc1nc2cc(C(F)(F)F)ccc2n1C1CCN(C(=O)N2CCOCC2)CC1` it is -0.127.
The molecule `N#C/C(=C/c1ccc(-c2ccc(Br)cc2)o1)C(=O)NC1CCCCC1` yielded a z-score of -0.159.
For `Cc1ccc(NC(=S)Nc2ncccc2C)c(C)c1`, the z-score was 0.118.
The figure for `CCCCn1c(=O)c(CCC(=O)OCC(=O)Nc2cc(Cl)ccc2OC)nc2ccccc21` is 0.0025.
The figure for `CCOC(=O)c1cc2nc(Nc3ccc(OC)cc3)sc2s1` is 0.969; for `Nc1ccccc1-c1nnc(SCc2ccccc2Cl)[nH]c1=O` it is -0.409.
For the molecule `CSc1cccc(NC(=O)CSc2ccccc2)c1`, the z-score was determined as 1.09.
With `O=C(Nc1ccc(Cl)cc1)N1CCC(c2nc(-c3ccccc3Cl)no2)CC1`, the z-score was -0.0366.
The figure for `COc1ccccc1-c1c(NC(=O)c2ccco2)n(-c2ccccc2)nc(C)c1=O` is -0.192.
On to `C=CCn1c(O)c(N=NC(=O)OC(C)(C)C)c2ccccc21`, for which the z-score was found to be 1.14.
`COc1ccc(-c2cc(C(F)(F)F)nc(-n3cc(Cl)cn3)n2)cc1` returned a z-score of 0.102.
On to `CC(C)Oc1ccccc1OCCN(C)C`, for which the z-score was found to be 0.85.
The figure for `COc1cc(-c2nnn(CC#N)n2)ccc1OCc1ccccc1` is -0.365.
The figure for `COc1ccccc1Nc1nc(-c2ccc([N+](=O)[O-])cc2)nc2ccccc12` is -0.0715; for `Cc1ccc(NC(=O)c2cc(-c3cccs3)on2)cc1` it is 0.503.
The figure for `CCOc1ccccc1Cn1c(=O)oc2ccc(C)cc21` is -0.516; for `Cc1ccc2oc(=O)c3cnn(CC(=O)NCCCOC(C)C)c3c2c1` it is -0.229.
`COc1c(/C=N/Nc2nc(N3CCCCC3)nc(N3CCCCC3)n2)cccc1[N+](=O)[O-]` came in with a z-score of -0.0609.
The figure for `O=C(Nc1ccccc1)N1CCCc2ccccc21` is -0.0768; for `CCOc1ccc(C(CC(=O)O)NC(=O)C2c3ccccc3Oc3ccccc32)cc1` (centres undefined) it is -0.19; for `COc1cc2c(cc1OC)C(C(=O)Nc1ccc3c(c1)OCCO3)C1c3ccccc3CCN1C2=O` (centres undefined) it is 0.206.
The figure for `CC(C)[C@H](NC(=O)C1(c2ccccc2)CCN(C(=O)OC(C)(C)C)CC1)C(=O)O` is -1.06; for `O=C1CCCC/C1=C\Nc1ccccc1C(=O)O` it is -0.313; for `CCOc1ccc(OCC)c(NS(=O)(=O)c2ccc3c(c2)CCN3C(=O)C2CCC2)c1` it is -0.364.
The figure for `COc1ccc(CCN2C(=O)CC(Cc3ccc(Br)cc3)C2=O)cc1OC` (centres undefined) is -0.0941.
In turn, `Cc1nnc(SCc2c(Cl)cccc2Cl)s1` registered a z-score of -0.21.
The molecule `COc1ccc(NS(=O)(=O)c2cc(NC(=O)c3cnccn3)ccc2N2CCCC2)cc1` returned a z-score of -0.041.
`Cc1cc(C)n(-c2ccc(OCC(=O)O)nn2)n1` came in with a z-score of -0.0885.
`Cc1ccc2nc(C3CCN(CC(=O)N4CCCCCC4)CC3)[nH]c2c1`: the z-score was -0.125.
The figure for `O=C(c1cccc(COc2cccc3ccccc23)c1)N1CCCC1` is -0.0861.
As to `O=C(NC(=S)N1CCN(c2ccc([N+](=O)[O-])cc2)CC1)c1ccc(F)cc1`, the z-score was active: 9.01.
`O=C1C(=O)N(CNc2cccnc2)c2ccccc21` gave a z-score of -0.21.
Take `O=[N+]([O-])c1ccc(N2CCN(S(=O)(=O)c3ccccc3)CC2)cc1NCc1ccco1`: the z-score is -0.155.
In turn, `O=C(CNS(=O)(=O)c1ccc(Br)s1)N1CCCC1` came in with a z-score of 0.497.
`CCC(C)c1ccc(O)c(/C=N/O)c1` (centres undefined) showed a z-score of 0.177.
The figure for `CCC(C)c1ccccc1NC(=S)Nc1cccnc1` (centres undefined) is -0.189.
The figure for `COc1ccc(CNC(=O)c2cc(C3CC3)on2)cc1` is -0.593; for `CCOC(=O)N1CCN(S(=O)(=O)c2ccc(OCC(=O)OC)c(Cl)c2)CC1` it is 0.497.
The figure for `Cc1ccc(N(CC(=O)Nc2ccc(F)cc2)S(=O)(=O)N2CCCC2)cc1` is -0.846.
For `O=[N+]([O-])c1c(Nc2ccccc2)ccc2nonc12`, the z-score is -0.0615.
Turning to `O=C(COc1ccc(C(=O)NCCc2ccccc2)cc1)Nc1ccccc1`, the z-score is -0.451.
The figure for `COc1cc2c(cc1OC)CN(C(C)C(=O)N1CCc3ccccc31)CC2` (centres undefined) is 0.661; for `CNC(=S)N(Cc1ccc2c(c1)OCO2)C1CC(=O)N(c2ccc(F)cc2)C1=O` (centres undefined) it is 0.0865; for `Cc1cccc2cc(CN(Cc3cccs3)C(=S)NCc3ccco3)c(=O)[nH]c12` it is 0.0639.
For `COc1ccc(C(=O)C[n+]2ccccc2C)cc1`, the z-score is 0.831.
The figure for `COc1ccc(-c2noc(CCC(=O)NCCN3CCN(c4ccccc4F)CC3)n2)cc1` is -0.0754; for `CC(=O)Nc1ccc2c(c1)ncn2C` it is -0.0444.
The figure for `CC(=O)Oc1ccc(/C=N/NC(=S)Nc2ccccc2)cc1` is -0.154.
In turn, `CC(Sc1nc2ccccc2n1C)C(=O)NC(c1ccccc1)c1ccccc1` (centres undefined) showed a z-score of -0.468.
The figure for `NNc1nc(-c2ccccc2)cc(-c2ccccc2O)n1` is -0.293; for `O=C(NCC1c2ccccc2CCN1C(=O)CN1C(=O)c2ccccc2C1=O)C1CCCCC1` (centres undefined) it is 0.166.
The figure for `COc1cc(/C=C(/C#N)c2nc3ccccc3[nH]2)ccc1Oc1ncccc1[N+](=O)[O-]` is -0.144; for `CCOC(=O)c1cnc2ccc(Cl)cc2c1Nc1ccc(S(=O)(=O)Nc2ncccn2)cc1` it is 0.216.
The figure for `Nc1ccc(-n2nncc2-c2ccco2)cc1` is -0.123; for `O=[N+]([O-])c1ccc(/C=N/NC(=S)Nc2ccccc2F)o1` it is active: 6.05; for `CCCCOC(=O)c1ccc(NC(=S)NC(=O)c2c(Cl)cnn2CC)cc1` it is active: 8.06.
For the molecule `COc1ccc(C(=O)N2CCCC2)cc1S(=O)(=O)N1CCOCC1`, the z-score was -0.383.
The figure for `Cc1oc(C)c(C(=O)O)c1COc1ccc(C(=O)O)cc1` is 0.2.
As for `O=C(CCNC(=O)c1ccccc1Cl)Nc1ccc2c(c1)OCO2`, the z-score amounted to 0.0986.
The figure for `O=C(c1ccc(Cl)cc1)C(Cn1cncn1)C(Sc1ccccc1)c1ccccc1` (centres undefined) is -0.0227; for `O=S(=O)(NC1=NCCCCCC1)c1cccs1` it is 0.549.
The figure for `COc1cccc(COc2nc3c(c(=O)n(C)c(=O)n3C)n2C)c1` is -0.0675.
